Experimental data as given in patent US20220348664A1 (WUXI BIOLOGICS IRELAND, published 2022).

How the values were obtained:
[1] = target: T1, mouse PD-L1 ECD with mouse Fc tag (W315-mPro1.ECD.mFc) (mouse, UniProt Q9EP73 fragment); assay: ELISA, plate coated with mouse PD-L1 ECD-mFc, HRP anti-human IgG detection
T1 construct: extracellular domain; also called W315-mProl.ECD.mFc; recombinant mouse PD-L1 protein
Protocol: (§1) After washing, TMB substrate was added and the color reaction was stopped by 2M HCl. The absorbance at 450 nm was read using a microplate reader.

[2] = target: T2, human PD-L1, full length, on CHO-K1 cells (W315-CHO-K1.hPro1.C11) (human, UniProt Q9NZQ7); assay: FACS competition, blocking of mFc-tagged PD-1 (competitor) binding to PD-L1-expressing CHO-K1 cells
T2 construct: whole, on cells; also called human PD-L1-expressed CHO-K1 cells; PD-L1 expressing cells
Protocol: The MFI was evaluated by flow cytometry and analyzed by the software FlowJo.

human CD4 = human CD4 (human, UniProt P01730 fragment, limits assumed); assay: ELISA, plate coated with human CD4
Protocol: Plates were coated with human CD4 at 1 μg/ml overnight at 4° C. […] The plates were then washed and subsequently incubated with corresponding secondary antibody for 60 min. After washing, TMB substrate was added and the color reaction was stopped by 2M HCl. The absorbance at 450 nm was read using a microplate reader.

[3] = target: T3, human LAG-3 ECD with His tag (W339-hPro1.ECD.His) (human, UniProt P18627 23-450); assay: dual binding ELISA: antibody titrated on human LAG-3 ECD-His captured by anti-His, detected with biotin-labelled human PD-L1 ECD-mFc and HRP-streptavidin
T3 construct: extracellular domain; also called W339-hProl.ECD.His; human LAG-3 protein
T3 sequence (looked up): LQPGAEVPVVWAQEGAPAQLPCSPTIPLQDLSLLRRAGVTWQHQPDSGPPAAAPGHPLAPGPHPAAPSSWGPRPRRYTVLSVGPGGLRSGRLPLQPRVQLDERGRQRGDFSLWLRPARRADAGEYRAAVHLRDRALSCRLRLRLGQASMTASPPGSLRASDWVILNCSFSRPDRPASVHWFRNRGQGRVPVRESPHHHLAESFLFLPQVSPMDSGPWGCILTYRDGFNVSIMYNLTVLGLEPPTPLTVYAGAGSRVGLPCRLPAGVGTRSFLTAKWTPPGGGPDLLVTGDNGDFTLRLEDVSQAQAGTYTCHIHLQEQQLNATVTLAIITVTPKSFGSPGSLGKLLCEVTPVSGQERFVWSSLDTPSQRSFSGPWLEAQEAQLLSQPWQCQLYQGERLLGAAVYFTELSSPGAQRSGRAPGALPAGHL
Protocol: as §1

[4] = target: T3, human LAG-3 ECD with His tag …; assay: dual binding ELISA after 1 day in human serum at 37 C: antibody on captured human LAG-3 ECD-His, detected with biotin-labelled human PD-L1 ECD-mFc
Protocol: as §1

[5] = target: T4, human LAG-3 ECD with mouse Fc tag (W339-hPro1.ECD.mFc) (human, UniProt P18627 23-450); assay: ELISA competition, blocking of mouse Fc-tagged LAG-3 binding to coated human FGL-1 (competitor FGL-1)
T4 construct: extracellular domain; also called W339-hProl.ECD.mFc; recombinant human LAG-3 protein
T4 sequence (looked up): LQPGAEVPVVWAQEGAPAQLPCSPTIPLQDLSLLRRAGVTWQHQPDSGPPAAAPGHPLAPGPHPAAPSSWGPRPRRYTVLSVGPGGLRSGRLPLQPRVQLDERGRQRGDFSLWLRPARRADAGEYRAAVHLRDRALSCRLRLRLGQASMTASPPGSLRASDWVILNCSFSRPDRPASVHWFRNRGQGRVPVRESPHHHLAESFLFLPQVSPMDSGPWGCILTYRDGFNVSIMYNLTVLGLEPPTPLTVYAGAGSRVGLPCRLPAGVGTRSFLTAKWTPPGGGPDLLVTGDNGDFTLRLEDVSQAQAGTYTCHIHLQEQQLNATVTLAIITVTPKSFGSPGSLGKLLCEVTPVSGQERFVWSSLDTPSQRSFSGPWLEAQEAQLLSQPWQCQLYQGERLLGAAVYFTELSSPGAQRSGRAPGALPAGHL
Protocol: After blocking and washing, the mixture was transferred to the plates and incubated at room temperature for 1 h. […] After washing, TMB substrate was added and the color reaction was stopped by 2M HCl. The absorbance at 450 nm was read using a microplate reader.

[6] = target: T4, human LAG-3 ECD with mouse Fc tag …; assay: FACS competition, blocking of mFc-tagged LAG-3 binding to MHC-II on Raji cells (competitor MHC-II)
Protocol: The mixture was transferred into the 96-well plates seeded with Raji cells. Goat anti-mouse IgG Fc-PE antibody was used to detect the binding of LAG-3 protein to Raji cells. The MFI was evaluated by flow cytometry and analyzed by the software FlowJo.

[7] = target: T5, cynomolgus LAG-3 protein (Sino-90841-C08H) (cynomolgus); assay: ELISA, cynomolgus LAG-3-His captured by coated anti-His, HRP anti-human IgG detection
T5 construct: Bought; also called recombinant cyno LAG-3 protein

[8] = target: T3, human LAG-3 ECD with His tag …; assay: dual binding ELISA after 0 days in human serum at 37 C: antibody on captured human LAG-3 ECD-His, detected with biotin-labelled human PD-L1 ECD-mFc
Protocol: as §1

[9] = target: T4, human LAG-3 ECD with mouse Fc tag …; assay: ELISA, human LAG-3 ECD-mFc captured by coated goat anti-mouse F(ab)2, HRP anti-human IgG detection
Protocol: as §1

[10] = target: T6, human PD-L1 ECD with mouse Fc tag (W315-hPro1.ECD.mFc) (human, UniProt Q9NZQ7 fragment); assay: ELISA, plate coated with human PD-L1 ECD-mFc, HRP anti-human IgG detection
T6 construct: extracellular domain; also called W315-hProl.ECD.mFc; recombinant human PD-L1 protein
Protocol: as §1

[11] = target: T3, human LAG-3 ECD with His tag …; assay: dual binding ELISA after 4 days in human serum at 37 C: antibody on captured human LAG-3 ECD-His, detected with biotin-labelled human PD-L1 ECD-mFc
Protocol: as §1

[12] = target: T3, human LAG-3 ECD with His tag …; assay: dual binding ELISA after 14 days in human serum at 37 C: antibody on captured human LAG-3 ECD-His, detected with biotin-labelled human PD-L1 ECD-mFc
Protocol: as §1

[13] = target: cyno PD-L1 protein (SPR analyte) (cynomolgus, UniProt G7PSE7 19-238); assay: SPR (Biacore 8K), antibody captured on anti-human IgG Fc chip, antigen as analyte, 1:1 fit
Sequence of UniProt G7PSE7 (G7PSE7 entry or part of it): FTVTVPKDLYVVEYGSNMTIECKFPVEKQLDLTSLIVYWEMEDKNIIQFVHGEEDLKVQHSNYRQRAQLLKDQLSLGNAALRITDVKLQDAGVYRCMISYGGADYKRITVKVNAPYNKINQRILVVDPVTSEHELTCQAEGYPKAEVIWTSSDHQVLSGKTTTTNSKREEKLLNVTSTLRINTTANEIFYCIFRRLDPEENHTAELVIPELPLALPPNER
Excerpt: (§2) The sensorgrams of blank surface and buffer channel were subtracted from the test sensorgrams. The experimental data was fitted by 1:1 model using Langmiur analysis.

[14] = target: human PD-L1 protein (SPR analyte) (human, UniProt Q9NZQ7 fragment, limits assumed); assay: as above
Excerpt: as §2

[15] = target: mouse PD-L1 protein (SPR analyte) (mouse, UniProt Q9EP73 fragment, limits assumed); assay: as above
Excerpt: as §2

[16] = target: T7, mouse LAG-3 protein (SPR analyte) (mouse, UniProt Q61790 24-442, limits assumed); assay: as above
T7 sequence (looked up): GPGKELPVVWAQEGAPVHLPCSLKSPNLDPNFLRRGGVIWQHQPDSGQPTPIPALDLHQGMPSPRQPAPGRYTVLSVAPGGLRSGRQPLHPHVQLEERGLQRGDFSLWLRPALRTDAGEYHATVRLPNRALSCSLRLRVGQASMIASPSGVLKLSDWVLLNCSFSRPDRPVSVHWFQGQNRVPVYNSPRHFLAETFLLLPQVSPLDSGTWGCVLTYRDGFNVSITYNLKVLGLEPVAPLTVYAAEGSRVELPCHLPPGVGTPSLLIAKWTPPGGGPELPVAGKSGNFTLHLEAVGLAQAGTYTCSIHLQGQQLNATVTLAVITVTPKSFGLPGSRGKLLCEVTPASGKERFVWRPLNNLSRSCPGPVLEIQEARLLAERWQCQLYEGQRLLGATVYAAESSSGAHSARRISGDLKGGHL
Excerpt: as §2

[17] = target: T8, human LAG-3 protein (SPR analyte) (human, UniProt P18627 23-450, limits assumed); assay: as above
T8 sequence (looked up): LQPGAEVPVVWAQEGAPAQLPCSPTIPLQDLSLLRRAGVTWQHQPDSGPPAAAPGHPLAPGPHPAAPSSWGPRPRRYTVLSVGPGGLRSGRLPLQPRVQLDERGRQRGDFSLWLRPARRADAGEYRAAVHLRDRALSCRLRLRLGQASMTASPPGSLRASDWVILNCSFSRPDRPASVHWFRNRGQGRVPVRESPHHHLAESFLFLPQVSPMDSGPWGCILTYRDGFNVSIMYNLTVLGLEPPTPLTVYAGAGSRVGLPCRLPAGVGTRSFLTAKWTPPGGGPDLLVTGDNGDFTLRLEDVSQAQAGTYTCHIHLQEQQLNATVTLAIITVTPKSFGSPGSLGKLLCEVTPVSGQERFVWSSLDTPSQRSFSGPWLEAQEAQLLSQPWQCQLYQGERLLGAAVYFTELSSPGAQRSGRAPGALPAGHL
Excerpt: as §2

[18] = target: T3, human LAG-3 ECD with His tag …; assay: dual binding ELISA after 7 days in human serum at 37 C: antibody on captured human LAG-3 ECD-His, detected with biotin-labelled human PD-L1 ECD-mFc
Protocol: as §1

[19] = target: T9, human LAG-3, full length, on cells (W339-FlpIn293.hPro1.A3) (human, UniProt P18627 23-525); assay: FACS on human LAG-3-expressing 293 cells, PE anti-human IgG detection
T9 construct: whole, on cells; Jurkat cells in the reporter assay; also called human LAG-3 transfected 293 cells; LAG-3 expressing cells
T9 sequence (looked up): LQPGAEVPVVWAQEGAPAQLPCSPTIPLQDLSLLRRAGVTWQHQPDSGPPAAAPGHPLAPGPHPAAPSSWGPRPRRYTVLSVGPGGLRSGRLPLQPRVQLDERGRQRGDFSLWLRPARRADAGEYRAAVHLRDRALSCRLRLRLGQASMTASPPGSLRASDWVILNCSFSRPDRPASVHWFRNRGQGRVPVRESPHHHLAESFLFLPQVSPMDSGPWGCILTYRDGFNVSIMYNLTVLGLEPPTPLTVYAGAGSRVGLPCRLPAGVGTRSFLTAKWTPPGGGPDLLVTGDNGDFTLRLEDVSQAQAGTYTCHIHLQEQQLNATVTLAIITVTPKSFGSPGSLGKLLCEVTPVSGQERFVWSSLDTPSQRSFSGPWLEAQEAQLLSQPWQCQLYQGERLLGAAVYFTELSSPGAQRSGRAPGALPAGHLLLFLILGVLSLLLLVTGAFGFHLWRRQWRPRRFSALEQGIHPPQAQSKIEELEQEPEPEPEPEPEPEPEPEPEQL
Protocol: MFI of the cells was measured by flow cytometry and analyzed by FlowJo.

B1: W3669-U15T4.G1-1.uIgG1LALA (bispecific antibody)
chain: EVQLVESGGGLVQPGGSLRLSCAASGHFSNLAVNWFRQAPGKERELVAGILWSGGSTFYADSVKGRFTISRGNAENMLYLQMNSLRAEDTAVYYCNTGTNWGQGTLVTVSS[human IgG1 Fc with changes left out]GGGGSGGGGSGGGGSGGGGSGGGGSGGGGSGGGGSQVQLVESGGGVVQPGGSLRLSCAASGLTLSQYTMGWFRQAPGKERELVAAIHWTSSVTDYADSVYGRFTISRDDSKNTGYLQMNSLRAEDTAVYYCAATHYYTHRGPFDYWGQGTLVTVSS
notes: Humanized llama VHHs on a human IgG1 Fc with L234A L235A; also called W3669 antibody; W3669 bispecific antibody
For B1, the EC50 [1] was 0.05 nM, the IC50 [2] was 0.11 nM and the binding result (human CD4) was “no binding (tested: 67 nM)”. The EC50 [3] was 0.293 nM, the EC50 [4] was 0.04 nM and the IC50 [5] was 7.53 nM. It also gave an IC50 [6] of 1.65 nM, an EC50 [7] of 0.25 nM and an EC50 [8] of 0.04 nM. For the same binder, the EC50 [9] was 3.07 nM, the EC50 [10] was 0.025 nM and the EC50 [11] was 0.04 nM. It also gave an EC50 [12] of 0.04 nM, a Kd [13] of 0.518 nM and a koff [13] of 0.000458 s⁻¹. For the same binder, the kon [13] was 884000 M⁻¹ s⁻¹, the Kd [14] was 0.35 nM and the koff [14] was 0.000284 s⁻¹. For the same binder, the kon [14] was 812000 M⁻¹ s⁻¹, the Kd [15] was 20.7 nM and the koff [15] was 0.0101 s⁻¹. The kon [15] was 489000 M⁻¹ s⁻¹, the Kd [16] was under 0.00575 nM and the koff [16] was under 1e-05 s⁻¹. It also gave a kon [16] of 1.74e+06 M⁻¹ s⁻¹, a Kd [17] of 0.441 nM and a koff [17] of 2.3e-05 s⁻¹. For the same binder, the kon [17] was 52200 M⁻¹ s⁻¹, the EC50 [18] was 0.05 nM and the EC50 [19] was 0.735 nM.
